The full ranking holds about 33,000 sequences; the median of “E-score (-0.5 to 0.5)” is about -0.032, and the highest 2% start at about 0.36. The list shows a part of the results.
biological target: T1, Sko1 (UniProt Q02100); assay: PBM E-score (8-mer binding enrichment) (E-score (-0.5 to 0.5)); higher = stronger / more preferred TF binding; most listed sequences are background and not binding sites; details: protein concentration: 200 nM; construct: GST-full length
T1 sequence: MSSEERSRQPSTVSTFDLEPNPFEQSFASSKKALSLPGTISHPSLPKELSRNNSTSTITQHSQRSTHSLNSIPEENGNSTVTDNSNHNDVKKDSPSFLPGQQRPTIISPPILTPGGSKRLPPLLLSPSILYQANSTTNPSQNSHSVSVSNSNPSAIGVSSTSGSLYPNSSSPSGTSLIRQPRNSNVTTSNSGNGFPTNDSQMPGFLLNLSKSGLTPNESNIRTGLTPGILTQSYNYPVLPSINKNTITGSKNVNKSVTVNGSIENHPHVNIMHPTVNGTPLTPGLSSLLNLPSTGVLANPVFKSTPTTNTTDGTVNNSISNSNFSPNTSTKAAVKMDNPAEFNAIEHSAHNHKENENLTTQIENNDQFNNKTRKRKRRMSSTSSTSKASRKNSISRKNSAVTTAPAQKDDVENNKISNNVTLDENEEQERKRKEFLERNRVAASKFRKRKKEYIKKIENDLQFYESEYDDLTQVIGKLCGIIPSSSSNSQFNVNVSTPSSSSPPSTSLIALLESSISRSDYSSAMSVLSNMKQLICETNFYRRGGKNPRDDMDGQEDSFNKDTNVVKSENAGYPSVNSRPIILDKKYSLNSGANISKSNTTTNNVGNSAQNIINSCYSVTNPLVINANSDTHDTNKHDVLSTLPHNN
Procedure, shortened: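 Yeast transcription factors carrying a GST tag, as full-length proteins or DNA-binding domains, were produced by PURExpress in vitro transcription/translation. About 100-200 nM protein was applied to universal all-10-mer Agilent arrays, double-stranded by primer extension on fresh or once-stripped slides. Bound protein was detected with fluorescent anti-GST, and scans were normalised with masliner. The Universal PBM Analysis Suite gave each ungapped eight-base word, pooled with its reverse complement, an E-score, a modified Wilcoxon-Mann-Whitney statistic.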

Compared with AGTCGAGG, TAATAGAA is higher in “PBM E-score” value: -0.242 for the first, 0.161 for the second.

Going from ACCCCGAC to CGGGCTAA, the “PBM E-score” value falls from -0.302 to -0.314.

First: AGTTGTCA
Second: TAGACACA
The “PBM E-score” value of the first is higher: 0.0955 for the first, -0.00663 for the second.

Going from TCTATCCA to ACTTATCA, the “PBM E-score” value rises from -0.0632 to 0.0219.

Going from ATAAGGGG to TAATGCCA, the “PBM E-score” value rises from -0.124 to 0.153.

Compared with GCCTCAAC, GAATCAAA is higher in “PBM E-score” value: -0.175 for the first, -0.0549 for the second.

First: ATACTTAC
Second: CGATGCAG
The “PBM E-score” value of the first is higher: 0.214 for the first, -0.0971 for the second.

First: ACTTCCTG
Second: AAGAAGAA
The “PBM E-score” value of the first is lower: -0.135 for the first, -0.00324 for the second.

Going from GCGATATA to ATGTCGCA, the “PBM E-score” value rises from 0.00689 to 0.222.

Compared with CGGAACAC, AGTCGTTG is lower in “PBM E-score” value: 0.0493 for the first, -0.0462 for the second.

Going from ATACGCGC to CAGAGGGA, the “PBM E-score” value falls from 0.188 to -0.267.

First: CCTACCGC
Second: AGGTGTTC
The “PBM E-score” value of the first is lower: -0.148 for the first, -0.0318 for the second.

Going from CAGGGGGG to AGCTATTG, the “PBM E-score” value rises from -0.241 to 0.0351.

First: GATAGAGC
Second: TGCCAAAA
The “PBM E-score” value of the first is lower: -0.0529 for the first, 0.0993 for the second.

First: AAAGTTCA
Second: ACTTTACG
The “PBM E-score” value of the first is lower: -0.103 for the first, 0.379 for the second.

Going from CGTGGGAA to GTATTAAC, the “PBM E-score” value rises from 0.00507 to 0.112.

Going from TAGCGGAA to ATCCACTG, the “PBM E-score” value rises from -0.157 to -0.0759.

Compared with ACAGCTAG, ACCTTGCT is higher in “PBM E-score” value: -0.262 for the first, -0.242 for the second.

Going from ATATGGAT to CGGCACGC, the “PBM E-score” value falls from 0.0267 to -0.174.

Compared with GGGGATCA, CAAAGCAC is higher in “PBM E-score” value: -0.215 for the first, 0.0255 for the second.

Compared with CTGTCTTC, ACTTCGGG is lower in “PBM E-score” value: -0.194 for the first, -0.304 for the second.

First: AAAGTCCC
Second: GGGCTTGA
The “PBM E-score” value of the first is lower: -0.261 for the first, -0.212 for the second.

Going from CCAATTGC to ACACAGGG, the “PBM E-score” value falls from -0.0746 to -0.0935.

Going from AACCTGAA to CATGGCAA, the “PBM E-score” value rises from -0.164 to -0.0238.

Going from TGCTGTAA to TTCAACAA, the “PBM E-score” value rises from -0.0162 to 0.126.

Going from CCAACTAG to GCCGAACA, the “PBM E-score” value rises from -0.0007 to 0.0478.

First: AAATTATT
Second: CCCGAATA
The “PBM E-score” value of the first is higher: 0.252 for the first, -0.115 for the second.

Going from AAGTAGAC to CATAGTGG, the “PBM E-score” value falls from -0.0421 to -0.0579.

First: AGAAGCAG
Second: ACAAGGTG
The “PBM E-score” value of the first is lower: -0.144 for the first, 0.0682 for the second.

First: GACGAGGA
Second: CTCTGGTA
The “PBM E-score” value of the first is higher: 0.122 for the first, -0.133 for the second.

First: AGCCGTGG
Second: AGATCGTC
The “PBM E-score” value of the first is lower: -0.139 for the first, 0.0445 for the second.

First: TATCGCGA
Second: ACCAACTG
The “PBM E-score” value of the first is higher: -0.0183 for the first, -0.0438 for the second.

Going from AGGCCGAA to GACATTAC, the “PBM E-score” value rises from -0.248 to 0.284.

First: ATGATGAA
Second: GGCGATAA
The “PBM E-score” value of the first is higher: 0.321 for the first, -0.191 for the second.

Compared with CACATCCC, ATTTAGCC is higher in “PBM E-score” value: -0.19 for the first, 0.0463 for the second.

Going from CCATTTAC to AAAGAGGT, the “PBM E-score” value falls from 0.16 to -0.158.

Going from ACCACTAT to ACCCAGCG, the “PBM E-score” value rises from -0.168 to -0.0727.

Going from AAGGGATT to ACTGAGGA, the “PBM E-score” value falls from -0.0467 to -0.208.

Going from ATTTTGAA to GACTCAAC, the “PBM E-score” value falls from 0.167 to 0.12.

Going from AGCAGATA to CTTGCATA, the “PBM E-score” value rises from -0.0503 to 0.0594.

Compared with GATACAAC, ATTTACGG is lower in “PBM E-score” value: 0.236 for the first, 0.129 for the second.

Going from TGCATGAA to CCACTAAC, the “PBM E-score” value rises from 0.0308 to 0.065.

First: CACCGTCG
Second: CACGCTGA
The “PBM E-score” value of the first is lower: -0.174 for the first, 0.0429 for the second.

Compared with CAGCGCAG, CAAGACCC is lower in “PBM E-score” value: -0.198 for the first, -0.22 for the second.

Compared with AAGACTCG, CCGCGGCG is lower in “PBM E-score” value: -0.128 for the first, -0.238 for the second.

Compared with GACGCCTA, CCAGTGAA is higher in “PBM E-score” value: -0.163 for the first, 0.0532 for the second.

Compared with CGATTGTC, CAAAAGCC is lower in “PBM E-score” value: 0.0842 for the first, -0.221 for the second.

First: AATACAGC
Second: CTGATCGA
The “PBM E-score” value of the first is higher: 0.00789 for the first, -0.0593 for the second.

Compared with TCCCCAAA, ACTTCATC is lower in “PBM E-score” value: 0.103 for the first, 0.0947 for the second.

First: GAAGGTAC
Second: AGGTCGTG
The “PBM E-score” value of the first is lower: -0.0147 for the first, 0.0315 for the second.

Compared with AGGCCACA, AGGTAATA is higher in “PBM E-score” value: -0.18 for the first, 0.208 for the second.

Going from GTGGCCCA to ATCCCTCG, the “PBM E-score” value falls from -0.00529 to -0.185.

First: CGTGATAA
Second: GAGGCCAC
The “PBM E-score” value of the first is higher: 0.265 for the first, -0.154 for the second.

Going from AGTTCACC to GTTTGGTA, the “PBM E-score” value rises from 0.0342 to 0.194.

Compared with CCTCACAG, ATTCTTCG is higher in “PBM E-score” value: -0.175 for the first, 0.153 for the second.

Going from CTGCATAA to AAAGCCTT, the “PBM E-score” value falls from 0.103 to -0.142.

Going from CAATGATA to ATTCGATG, the “PBM E-score” value falls from 0.254 to 0.146.

First: ATCGCTCA
Second: ATTTGAGC
The “PBM E-score” value of the first is higher: -0.0309 for the first, -0.0412 for the second.

First: ACAGCCCA
Second: CATAGGTA
The “PBM E-score” value of the first is lower: -0.122 for the first, 0.0645 for the second.

Compared with ATGACATA, CGATGCAA is lower in “PBM E-score” value: 0.437 for the first, -0.124 for the second.

First: CCGACCGG
Second: AGTGTGCA
The “PBM E-score” value of the first is lower: -0.294 for the first, 0.0184 for the second.

Going from CAAGACGA to CTGGCGGC, the “PBM E-score” value falls from 0.0816 to -0.221.

Going from ACGTTGAT to GTAGCGTA, the “PBM E-score” value falls from 0.317 to 0.169.

Compared with TCAATGGA, ATACTTTG is higher in “PBM E-score” value: -0.142 for the first, 0.142 for the second.

Compared with GGTCGTGA, GAGAACCC is lower in “PBM E-score” value: 0.0516 for the first, -0.328 for the second.

Compared with AGATGCAG, AATTATCT is higher in “PBM E-score” value: -0.178 for the first, 0.173 for the second.

First: CTCTTATA
Second: CAGTGCAC
The “PBM E-score” value of the first is higher: 0.0925 for the first, -0.236 for the second.

Compared with GACCCCAC, ACCTGACC is lower in “PBM E-score” value: -0.026 for the first, -0.165 for the second.

First: AAAAACAC
Second: AAATTGTG
The “PBM E-score” value of the first is higher: 0.164 for the first, 0.0504 for the second.

Going from AAGGCTGA to AAGAACAC, the “PBM E-score” value rises from -0.125 to 0.224.

First: CTGGTTTC
Second: ACCGAACT
The “PBM E-score” value of the first is lower: -0.196 for the first, -0.136 for the second.

Going from AGCACAAC to CCGCGCAC, the “PBM E-score” value falls from 0.122 to -0.136.

First: AATCAAAA
Second: GAGGCAGA
The “PBM E-score” value of the first is higher: 0.0919 for the first, -0.283 for the second.

Compared with CCCGCCGG, CAATTAAC is higher in “PBM E-score” value: -0.222 for the first, 0.0907 for the second.

First: ACGTAGTC
Second: ACGCAGCC
The “PBM E-score” value of the first is higher: 0.425 for the first, 0.0962 for the second.

First: AAATTAGT
Second: AAAAGCCG
The “PBM E-score” value of the first is higher: 0.174 for the first, -0.231 for the second.

First: CCAGTGCC
Second: ATTTTGCA
The “PBM E-score” value of the first is lower: -0.172 for the first, 0.137 for the second.

Going from AGCCGTAT to GACCGGCC, the “PBM E-score” value falls from -0.0778 to -0.34.

Going from CCTATAAA to CGGGAAAA, the “PBM E-score” value falls from 0.0293 to -0.0548.

Compared with GCCGGCGA, GACAACAA is higher in “PBM E-score” value: -0.419 for the first, 0.108 for the second.

First: AGCGGAAG
Second: AGAGATAT
The “PBM E-score” value of the first is lower: -0.122 for the first, 0.075 for the second.

First: AATTTTCC
Second: GAGTGCAC
The “PBM E-score” value of the first is higher: 0.13 for the first, -0.169 for the second.

First: AGTGAAGA
Second: GGGAGCCC
The “PBM E-score” value of the first is higher: -0.112 for the first, -0.357 for the second.

First: AACATTTA
Second: AGCCATGA
The “PBM E-score” value of the first is higher: 0.225 for the first, 0.0965 for the second.

Compared with CAGATTAG, AAAGAACA is higher in “PBM E-score” value: -0.121 for the first, 0.191 for the second.

First: CTGTTGTA
Second: TAACTTCA
The “PBM E-score” value of the first is lower: 0.0314 for the first, 0.0809 for the second.

Source: the supplement of paper PMC3334620
